We go through four molecules from patent US20200362047A1 (CRESCENDO BIOLOGICS, published 2020).

For experiment [1], the target named is T1, human PSMA expressed on cells (human, UniProt Q04609).
T1 construct: One molecule for both cell lines (CHO human PSMA, DU145 PSMA); the cell line stands under assay; also called CHO human PSMA; CHO PSMA
Description: FMAT, DU145 PSMA cells. As to the method:
(§1) Binding of His-tagged molecules to CHO human CD137, CHO parent, CHO human PSMA, DU145 PSMA and DU145 parent cells was assessed using Fluorescence Microvolume Assay Technology (FMAT). All reagents were prepared in FMAT assay buffer (pH 7.4) containing PBS, 0.1% Bovine Serum Albumin, 0.05% Sodium Azide. Serially diluted samples were transferred into 384 well black clear-bottomed assay plates (Costar cat. no. 3655) and incubated for a minimum of 2 hours at room temperature with 1.5 nM Anti-His (Millipore cat. no. 05-949), […] Goat Anti-Mouse Alexa Fluor-488 (Jackson ImmunoResearch cat. no. 115-545-071) and 2000 cells/well pre-stained with DRAQ5 (Thermo Scientific cat. no. 62251). Fluorescence emission was then measured on the TTP Mirrorball plate reader in the FL2 (502 nm-537 nm) and FL5 (677-800 nm) channels following excitation at 488 nm and 640 nm. Data was gated on FL5 perimeter and peak intensity and the FL2 median mean fluorescence intensity of the gated data used for determination of VH binding. Monovalent CD137 specific Humabody® VH, bispecific and trispecific molecules with a CD137 binding arm bound to CHO CD137 expressing cells. Monovalent PSMA specific Humabody® VH, bispecific and trispecific molecules with a PSMA binding arm bound to PSMA expressing cells.

Experiment [2] concerns the target T1, human PSMA expressed on cells. Nature of the experiment: FMAT, CHO human PSMA cells. As to the method:
as §1

The target of experiment [3] is T2, PSMA-his (R&D Systems cat no. 4234-ZN) (human, UniProt Q04609).
T2 construct: Bought protein; also called Human PSMA; not shown: His tag
Description: BLI (Octet RED384), PSMA-his amine-coupled to AR2G sensors, 1:1 model. As to the method:
(§2) The kinetics of monovalent and bispecific Humabody VH were determined on a ForteBio Octet RED 384 instrument. To study the interaction with the antigens, CD137-Fc tag protein (Acro Biosystems cat no. 41B-H5258) or PSMA-his (R&D Systems cat no. 4234-ZN) was immobilised onto AR2G biosensors (ForteBio cat no. 18-5082) by amine coupling. Monovalent VH and bispecific molecules were serially diluted (typically 1:2 dilution series starting between 12-25 nM, at the highest concentration) in kinetics buffer (0.1% BSA, 0.02% Tween, 1×PBS) and binding to the immobilised proteins was studied during the association and dissociation phases. PSMA binding was measured using 180 seconds association and 600 seconds dissociation phases. CD137 binding was measured 180 seconds association and 600 seconds dissociation phases. Reference subtracted data were fitted to a 1:1 binding model using the ForteBio Octet Data Analysis software.
On the technique in general: Biolayer interferometry detects binding as a change in optical thickness at a sensor tip.

Experiment [4] addresses T3, human CD137 expressed on the surface of CHO cells (human, UniProt Q07011 24-255).
T3 construct: Also used for the Jurkat reporter cells that express human CD137 (functional rows); also called CHO human CD137 cells; CHO huCD137
Nature of the experiment: FMAT, CHO human CD137 cells. As to the method: as §1

Experiment [5] addresses T3, human CD137 expressed on the surface of …. Nature of the experiment: FMAT ligand inhibition, CD137 Ligand on CHO human CD137 cells. As to the method: In parallel to the binding assay, periplasmic extracts were tested for their ability to inhibit the interaction of human CD137 ligand protein with CHO human CD137 cells in an FMAT format. Total binding controls containing diluted periplasmic extract sample buffer and non-specific binding controls containing excess non-Fc tagged competitor were set up on each plate for data normalisation. Fluorescence signal was measured using the TTP Mirrorball and the FL2 median mean fluorescence intensity of gated used for the data normalisation. The data was expressed as a % of the total binding control (% control) after subtraction of the background signal determined from the non-specific binding control wells.
The ability of purified Humabody VH to inhibit the binding of CD137 Ligand to CHO human CD137 cells was measured in the FMAT ligand inhibition assay essentially as described in Example 6. VH inhibited the binding of human CD137 Ligand to human CD137.

For experiment [6], the target named is T4, human CD137-human Fc chimeric protein (Acro Biosystems cat no. 41B-H5258) (human, UniProt Q07011 24-186).
T4 construct: Bought protein; The Octet Protein G and Biacore experiments name no catalogue number; also called human CD137Fc recombinant protein; human CD137-Fc recombinant protein; not shown: human IgG1 Fc tag
Description: BLI (Octet RED384), CD137-Fc amine-coupled to AR2G sensors, 1:1 model. As to the method:
as §2

Experiment [7] addresses T5, CD137 on pre-stimulated human CD8+ T cells (human, UniProt Q07011 24-255).
T5 construct: also called pre-stimulated CD8+ cells; primary T cells
Nature of the experiment: flow cytometry, PMA/ionomycin-stimulated human CD8+ T cells, mean of 2-3 donors. As to the method: Binding to primary T cells was measured using flow cytometry. Peripheral blood mononuclear cells (PBMCs) were isolated from human blood by density gradient centrifugation then CD8+ T cells purified using a negative selection isolation kit according to the manufacturer's protocol (Miltenyi Biotech cat no 130-042-401). T-cells were stimulated PMA/Ionomycin for 48-72 hours in RPMI media supplemented with 10% FBS, 2 mM Glutamine, 1× Pen/Strep. Cells were transferred into 96 well plates, blocked for 10 mins with staining buffer (PBS/1% BSA/0.05% Sodium Azide) then incubated with serially diluted VH in staining buffer (PBS/1% BSA) for 30 mins-1 hour at 4° C. Cells were washed by centrifugation then VH binding detected using Anti His antibody (Millipore 05-949) and Goat Anti Mouse Alexa Fluor-488 (Jackson ImmunoResearch cat no. 115-545-071). A Live Dead near IR stain (Molecular Probes cat no. L10119) was used for discrimination of live cells. After further washing cells were fixed and fluorescence measured by flow cytometry.

T1 sequence (Q04609 whole entry): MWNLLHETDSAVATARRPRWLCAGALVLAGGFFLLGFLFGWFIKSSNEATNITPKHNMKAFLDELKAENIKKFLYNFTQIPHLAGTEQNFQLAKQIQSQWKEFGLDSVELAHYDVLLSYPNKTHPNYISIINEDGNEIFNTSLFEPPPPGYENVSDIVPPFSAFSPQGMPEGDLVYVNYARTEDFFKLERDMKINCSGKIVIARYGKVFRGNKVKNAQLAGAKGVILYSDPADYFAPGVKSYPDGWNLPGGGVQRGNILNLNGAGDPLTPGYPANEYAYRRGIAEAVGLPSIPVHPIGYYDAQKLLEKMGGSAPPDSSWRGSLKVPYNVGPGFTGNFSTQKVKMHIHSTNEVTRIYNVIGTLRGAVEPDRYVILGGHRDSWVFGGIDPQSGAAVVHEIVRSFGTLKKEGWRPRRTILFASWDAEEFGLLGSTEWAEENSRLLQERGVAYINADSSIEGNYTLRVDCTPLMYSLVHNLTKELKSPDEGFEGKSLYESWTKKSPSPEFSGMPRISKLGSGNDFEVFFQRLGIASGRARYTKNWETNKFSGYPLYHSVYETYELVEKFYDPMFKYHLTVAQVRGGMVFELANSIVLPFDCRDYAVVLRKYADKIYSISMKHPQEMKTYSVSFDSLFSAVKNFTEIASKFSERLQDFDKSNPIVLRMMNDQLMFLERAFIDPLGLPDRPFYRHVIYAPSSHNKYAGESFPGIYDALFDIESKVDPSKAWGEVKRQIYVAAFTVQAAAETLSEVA

B1: PSMA binding single VH domain antibody 3.8 (VHH)
VHH: EVQLLESGGGLVQPGGSLRLSCAASGFSFSSYALSWVRQAPGKGLEWVSSIGENDGTTDYAD[not shown - about 20 residues]MNSLRVEDTAVYYCVKDGVHWGQGTLVTVSS
notes: human single VH domain, PSMA specific
As to B1, a half-maximal response in experiment [1] (EC50) required 290 pM. For the same molecule, in experiment [2], a half-maximal response (EC50) required 230 pM. Also, in experiment [3], the Kd (usually the free concentration of one partner at which half of the binding sites on the other are occupied at equilibrium, for simple one-to-one binding) stood at 900 pM; the koff (commonly the first-order rate constant of dissociation) turned out to be 0.00035 s⁻¹; the kon – broadly, the second-order rate constant of association – amounted to 390000 M⁻¹ s⁻¹.

B2: 3.8-6GS-1.1-6GS-MSA (bispecific antibody)
chain: EVQLLESGGGLVQPGGSLRLSCAASGFSFSSYALSWVRQAPGKGLEWVSSIGENDGTTDYAD[not shown - about 20 residues]MNSLRVEDTAVYYCVKDGVHWGQGTLVTVSSGGGGSGGGGSGGGGSGGGGSGGGGSGGGGSEVQLVESGGGLVQPGGSLRLSCAASGFTFSSHWMTWFRQAPGKGLEWVAHIKEDGSEKYYEDSVEGRFTVSRDNAKNSVYLQMNSLRAEDTAVYYCARGGDGYSDSHFGVDVWGQGTTVTVSSGGGGSGGGGSGGGGSGGGGSGGGGSGGGGSQVQLVESGGGLVQPGGSLRLSCAASGFTFSSYAMSWVRQAPGKGLEWVATISDSGSSADYADSVKGRFTISRDNSKNTLYLQMNSLRAEDTAVYYCARGRYNWNPRALGIWGQGTMVTVSS
notes: trispecific tandem VH (PSMA, CD137, mouse serum albumin); also called 3.8-6GS-1.1-VH (MSA); not shown: His tag
In the case of B2, the results for the EC50 in experiment [1], in experiment [2] and in experiment [4] were 820 pM, 590 pM and 590 pM, respectively.

B3: 3.8-6GS-1.1 (bispecific antibody)
chain: EVQLLESGGGLVQPGGSLRLSCAASGFSFSSYALSWVRQAPGKGLEWVSSIGENDGTTDYAD[not shown - about 20 residues]MNSLRVEDTAVYYCVKDGVHWGQGTLVTVSSGGGGSGGGGSGGGGSGGGGSGGGGSGGGGSEVQLVESGGGLVQPGGSLRLSCAASGFTFSSHWMTWFRQAPGKGLEWVAHIKEDGSEKYYEDSVEGRFTVSRDNAKNSVYLQMNSLRAEDTAVYYCARGGDGYSDSHFGVDVWGQGTTVTVSS
notes: tandem VH, PSMA x CD137; not shown: His tag
In the case of B3, the EC50 (in general, the concentration at which the effect is half-maximal) worked out at 680 pM in experiment [1], 600 pM in experiment [2], 560 pM in experiment [4] and 1100 pM in experiment [7]. Moreover, the midpoint of inhibition in experiment [5], the IC50, lay at 1700 pM. Moreover, the Kd amounted to 560 pM in experiment [6] and 5700 pM in experiment [3]. Also, the koff is 0.00029 s⁻¹ in experiment [6] and 0.0017 s⁻¹ in experiment [3]. The kon came out at 490000 M⁻¹ s⁻¹ in experiment [6] and 300000 M⁻¹ s⁻¹ in experiment [3].

B4: 1.1-6GS-3.8 (bispecific antibody)
chain: EVQLVESGGGLVQPGGSLRLSCAASGFTFSSHWMTWFRQAPGKGLEWVAHIKEDGSEKYYEDSVEGRFTVSRDNAKNSVYLQMNSLRAEDTAVYYCARGGDGYSDSHFGVDVWGQGTTVTVSSGGGGSGGGGSGGGGSGGGGSGGGGSGGGGSEVQLLESGGGLVQPGGSLRLSCAASGFSFSSYALSWVRQAPGKGLEWVSSIGENDGTTDYAD[not shown - about 20 residues]MNSLRVEDTAVYYCVKDGVHWGQGTLVTVSS
notes: built from its printed name (1.1, 6GS linker, 3.8); not shown: His tag
In the case of B4, the EC50 in experiment [1] was 810 pM; in experiment [2] it was 630 pM; in experiment [4], 560 pM. Moreover, in experiment [5], the midpoint of inhibition, the IC50, lay at 1300 pM.
